± gives the standard deviation of the averaged measurements. The list shows a part of the results.
Test system: PfAP2-G AP2 domain (GST-tagged)
Assay: gcPBM binding intensity (ln(normalized median fluorescence intensity)); higher = stronger DNA binding
Outline: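 In this array assay, P. falciparum DNA-binding domains with a GST tag, expressed in E. coli, were applied for 1 h to primer-extended double-stranded 36-bp intergenic genomic probes and negative controls on an Agilent 4 × 180k array. Bound protein was visualised with Alexa488 anti-GST antibody at 488 nm. Binding intensity is the highest Masliner-normalised natural-log median intensity across replicate spots of either probe orientation.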

Sequence	gcPBM binding intensity (ln)
TGATTGTATTAAAATGCACACATATCAAGAGGAATT [CACACA_site7985]	10.1 ± 0.099
TTAATTTTTTTTTTTTGTACTCATATGTAATTCATC [XGTACX_site3071]	11.3 ± 0.93
ATTAAAACAAATATGTGTACATAAAAATATATATAT [XGTACX_site8394]	11.5 ± 0.94
TATTATTATTATTATTTTAAAAGAAATAAAAATATG [XGTACX_negctrl_site119]	9.98 ± 0.16
GTCTAAAAATAAAAAGTGCATTTGTTTAATATTTTG	10.13 ± 0.085
ATTTTAATTTTTTAAGTATTATATGAATATTTATTA [TGCATGCA_negctrl_site142]	9.72 ± 0.071
CACACGCACGAACACACACACACACGCGCACATATA [CACACA_site6304]	10.6 ± 0.42
TAATTTTCATAATTTTGTACTTAACGTTTTACCTTG [XGTACX_site8048]	10.9 ± 0.5
ACATATATATATATATATATATATATATATTCTTAA [CACACA_negctrl_site930]	10.3 ± 0.42
TCGATTAAAACACAAAAATATAAATACATTGATAAA [TGCATGCA_negctrl_site523]	9.65 ± 0.085
TTAATAAATATGTTTACACACGAAAATACATTTTTT [CACACA_site8245]	9.895 ± 0.035
TTAAAAGTTATGGATACACACATATAAATATAGATT [CACACA_site7175]	10.1 ± 0.15
TCTTCGAAACTATCACTCTCACAATTCATTTATTTT [TGCATGCA_negctrl_site156]	9.85 ± 0.057
ATAAATAAGAAAAATTGTACAATATTTTTTAGGATA [XGTACX_site3163]	11.1 ± 0.52
TAGAATTAAGTTATTGCACACAGGAAAAGTTTCATA [CACACA_site1634]	9.99 ± 0.071
AATCCTTACGAACACACACACACGAATAAATAAAAA [CACACA_site6363]	10.3 ± 0.39
ATATACACATTAATAACACACAATATGATAACAAAT [CACACA_site7670]	10.2 ± 0.32
CTGTGTTTTGGTTGTACACACGCTACATTATATATT [CACACA_site5487]	11.6 ± 0.9
ATATACATTAAATGAACACACATAAATAAATTACAT [CACACA_site2852]	9.955 ± 0.078
TTTTAATTTTGTTGTTGTACAAATAACATGTGAGGG [XGTACX_site4401]	11.2 ± 0.83
TATTTTATCATTTTTTTTATGTCTTTATTTCACTTG [CACACA_negctrl_site1398]	9.89 ± 0.042
ATATATATATATATATCATTTATTTAAAAATTTTTT [TGCATGCA_negctrl_site228]	9.91 ± 0.52

Sequence	gcPBM binding intensity (ln)
CTCATTTTTGTACAGGTGCACTTATCGTTACACTAT	11.3 ± 0.71
AACACATAAAAAAGGTGTACCATAAAATATACATAC [XGTACX_site4478]	11.4 ± 0.76
AAAGTTTTTATAAAAAAAAAAATAAATACCATATAT [XGTACX_negctrl_site113]	10.11 ± 0.014
GTGTTTTTATGTGAATGTACATATTTACTATCACAC [XGTACX_site2388]	11.2 ± 0.6
GTGCATAAATCATACACACACACATATATAAATATA [CACACA_site7188]	10.2 ± 0.22
AAAAGTTTAAGTTTTCGAAAATTTACCAAAAAAAAA [CACACA_negctrl_site1644]	10.1 ± 0.16
ATTTATAATATGTATACACACACATATATAAATATA [CACACA_site8729]	10 ± 0.16
AAATTGGGGCTTGTTACACACTTAGTGTGAGTTCTA [CACACA_site6417]	10.2 ± 0.22
GTTCAATTATTTTTATGTACATATATTTTTTTCTTT [XGTACX_site2505]	11.4 ± 0.89
TATAATCATAAATACACACACATATATATATATATA [CACACA_site5224]	10.1 ± 0.33
TTCTCATCCTTACATACACACACATATATATATATA [CACACA_site7914]	10.6 ± 0.74
GTTATTAAAAACGGGTGTACACATATATAAATATAT [XGTACX_site1234]	11.6 ± 0.86
TATTTATTATAAAAATTGTATAAAATAATAATGCTC [GTGCAC_negctrl_site456]	9.9 ± 0.3
TTTTGTGATCTTACCACCTTTCATAATATTAATAAA [GTGCAC_negctrl_site360]	10.4 ± 0.21
ATATATTTTAATGATACACACAAGAAATAAAATTAC [CACACA_site5671]	10.2 ± 0.15
ATAGAACAATTCAGAAGTACATAAAAAGAAAAATTT [XGTACX_site3015]	11.4 ± 0.84
TTGGATGATTAAGGGGGACACACGTTTATATATTTA [CACACA_site338]	11.4 ± 0.79
TTCATTCTATAAAACACACAAATATTTTTGTATCCC [CACACA_site6458]	10.01 ± 0.085
ACTTTTTTAATGTTACGTACACATAAATAATAATTA [XGTACX_site8092]	11.6 ± 0.9
TTTCACAAATGATATAGTACTTTTTATTATTAACAT [XGTACX_site7976]	11.1 ± 0.64
ATATATTTTTTGAATACACACATATTATATGTAATA [CACACA_site1256]	10 ± 0.18
TAAAAAAAAAAAAAAGTACACACTTATAAAATATTA [CACACA_site872]	11.6 ± 1

Sequence	gcPBM binding intensity (ln)
TTTATTTATTTAATTACACACGAACATATAACCATT [CACACA_site7952]	10.3 ± 0.29
ACAAATGAGATTATATGTACACATAACAAATTTACA [XGTACX_site3496]	11.5 ± 0.79
GTTACACCAACAAACACACACACACCGACACCCAAA [CACACA_site5361]	10.4 ± 0.39
AAATGTAAAATTTTATGTACATATATTTATATAATA [XGTACX_site3737]	11.5 ± 0.8
TTTTGACATTAATTACTATAGTGTTCTTATAAAATT [TGCATGCA_negctrl_site589]	10.01 ± 0.014
CATTTTATTTTAATATGTACTTAAAGAAAAAAAATT [XGTACX_site7670]	11.2 ± 0.82
TTATACATATATTTAACACACATTTTATAAAGTGCC [CACACA_site1314]	9.875 ± 0.078
AAAACTATAATGAATAGTACATAAAAATGGATATAT [XGTACX_site6056]	11 ± 0.5
AATCGATAAAATGTTGTGCACATATTTTTATATTTA [GTGCAC_site9651]	10.4 ± 0.22
AATACATAAAAATAAAAATAAAATATAACTAATATG [CACACA_negctrl_site186]	9.78
TTAAATTACTAATGTGCACACATACTAACGTTTAAA [CACACA_site3573]	10.5 ± 0.29
TATCTTATTTTATCTCGTACATAAAATTAAAAAATT [XGTACX_site3636]	10.9 ± 0.62
AATATGTATCCATACACACATACATTTTATTTGCAA [CACACA_site874]	10.2 ± 0.18
TTTTATTTATTATTTACACACACGTAGGTGTCCATA [CACACA_site430]	10.7 ± 0.69
ATATAAAATCAACAAAAAAAAAAAATATATATATAT [XGTACX_negctrl_site251]	9.64 ± 0.49
TGTATATATTTGTGCACACCAAAGTTTGATTTTATT [CACACA_site1860]	10.7 ± 0.38
TTAACCTTTATATAATACGTATCATCCTCATATATA [CACACA_negctrl_site86]	10.4 ± 0.2
TTATATTTTTTAATTACACACAATTCTTATAAATAT [CACACA_site7870]	9.95 ± 0.099
TATTATAACTAAAAAAATCACATAAAATACTTTATT [CACACA_negctrl_site2]	9.46 ± 0.22
TATATACACATGCGCACACACAAGTGGGAAATTTGG [CACACA_site6930]	10.4 ± 0.2
AATATTTGCCTATGTTGTACTGACATTTTTTTAAGT [XGTACX_site6836]	11.2 ± 0.58
ATATATAATATATGATGTACTTAATAATTTTTTTTT [XGTACX_site5715]	11.1 ± 0.93

Sequence	gcPBM binding intensity (ln)
TAATAATCCACAAGCACACACACACCCATATATATA [CACACA_site1267]	10.3 ± 0.28
TTAAGGATCCACGATACACACATATCATTCAACAAA [CACACA_site1924]	10.2 ± 0.28
TATATATCGTTATATACACACATGTATATAAAAAAT [CACACA_site7501]	10.1 ± 0.17
TTATTCTAGTAGTGTGTGCGCATGGACAATGCAATA	10.8 ± 0.35
ATACATATAATATATGCATGTACCAATCAAATATAT [TGCATGCA_site192]	10.5 ± 0.29
TTCTTTATATACAAACCAAAATATTATGTATAATAA [CACACA_negctrl_site15]	9.83 ± 0.071
CTTTATATAAAATAAAGTACATAAATTATGATATAT [XGTACX_site3699]	11.2 ± 0.88
ATATTTTATTTATATACACACACATATATATATTAT [CACACA_site8177]	10.22 ± 0.042
TAATTTTTTTTTATGATACACACTTGGATAATTAAA [CACACA_site562]	10.2 ± 0.39
TTATTATATATTTTATTTATTAATAGTATATATTAT [TGCATGCA_negctrl_site155]	9.74 ± 0.16
ATAAAACATAAATACATACACACATAATATATATTA [CACACA_site110]	9.98 ± 0.071
TAAAAATGGGTATGTACACACTTTATTTTTAATACA [CACACA_site5404]	11.5 ± 0.92
TTGTGTTTTATTATTTTATTATTACTATTATAATGT [GTGCAC_negctrl_site484]	9.86 ± 0.071
TGTAATGTTTACAACACACAAATTAGAAATACAAAA [CACACA_site6924]	10.2 ± 0.3
ACATATTTAAAAACATGTACAAATATATTTATAATT [XGTACX_site661]	10.9 ± 0.65
AAGGAAGATATATACACACATACAAATATATATATA [CACACA_site2181]	9.865 ± 0.092
TTTTTTCAATTGGAAATTATTTTACAATGAAGGGTA [XGTACX_negctrl_site469]	9.94 ± 0.29
GATATATATACATGTGTGCACCATGCAACTTGTTTT	10.4 ± 0.2
TATTTTACGTATTGTTGTACTTGAAACAAATATACA [XGTACX_site8778]	11.3 ± 0.94
TTATTTATAATGTTGTGTACATATATGAATATACCA [XGTACX_site3111]	11.5 ± 0.59
AAGAAAAAATAAAGCACACAAATATTTTAAAAACAC [CACACA_site3325]	10.5 ± 0.4
CGTTTCCCCAATGGTTGTACAATATATATATATATA [XGTACX_site8641]	11.2 ± 0.66

From the supplement of paper PMC11417369
